Experimental data: the supplement of paper PMC11417369
This is one part of the list.

Tested on: PfSIP2 AP2 domain 1 (GST-tagged)
Assay: gcPBM binding intensity (ln(normalized median fluorescence intensity)); higher = stronger DNA binding
Method in brief: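 DNA-binding domains from P. falciparum, fused to GST and produced in E. coli, were put on an Agilent 4 × 180k double-stranded probe array for 1 h in 1× PBS holding 1% milk, 0.2 mg/ml BSA, 0.5% salmon testes DNA and 0.03% Triton X-100. Probes were primer-extended, 36 bp long and drawn from intergenic genomic regions, with negative controls included. After Alexa488 anti-GST antibody detection and a 488 nm scan, binding intensity was set as the highest Masliner-normalised natural-log median intensity across replicate spots of either probe orientation.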

Going from “TCTTTCTGCTCTTATACACACAAATAAAGATTTTTT [CACACA_site2700]” to “ATGAAATTTTCATATTGTACTATTAAAAATATATTT [XGTACX_site1989]”, the “gcPBM binding intensity (ln)” value falls from 7.49 to 7.12.

Compared with “TGTAGATTTTGTAACACACACATATAAATACAGATA [CACACA_site5343]”, “TAAGGGATATGTATATGTACATACAAATATATATAA [XGTACX_site2892]” is lower in “gcPBM binding intensity (ln)” value: 7.1 for the first, 6.99 for the second.

Going from “TTTGCTTCGATATATTCACACATTTTTTTTCTTATT [CACACA_site4499]” to “AAATGTAATAAATATACACACACAAATATATATATA [CACACA_site8754]”, the “gcPBM binding intensity (ln)” value rises from 7.06 to 8.48.

Compared with “AATTTCATTTTTAGAAGTACATTTATATTAAAAATC [XGTACX_site2888]”, “TAAGATCCTTAAAACGCATGCAGTATTTTTATTTCT [TGCATGCA_site532]” is lower in “gcPBM binding intensity (ln)” value: 7.02 for the first, 6.67 for the second.

First: TAGCCAAAAGGATATGCACACACACCCACATATATA [CACACA_site8684]
Second: CATATAATTATTTTCACACATATAACTACATCTATA [CACACA_site5915]
The “gcPBM binding intensity (ln)” value of the first is higher: 7.07 for the first, 6.93 for the second.

First: CTTTTACGTTTAGGATGTACATTTAAAAAAAAAGAA [XGTACX_site8032]
Second: ATATAAATAAAAAAAAGTACATAATATATAAAAATA [XGTACX_site3065]
The “gcPBM binding intensity (ln)” value of the first is higher: 7.3 for the first, 7.13 for the second.

Compared with “AATAAATATTAAATGACAAAAAAAAAAAAAAAAGGG [XGTACX_negctrl_site15]”, “TATAATCCATAAGAAGCACACACATATATATATATT [CACACA_site8394]” is lower in “gcPBM binding intensity (ln)” value: 7.65 for the first, 7.16 for the second.

First: TTAAGATGCATAAATACATGCAAAGTAAATAATTCT [TGCATGCA_site517]
Second: TTAGCAGGACGTTTGGTGCACGTACTGTTTTTCTTT [GTGCAC_site9856]
The “gcPBM binding intensity (ln)” value of the first is lower: 6.88 for the first, 10.3 for the second.

Compared with “ATTATAAGAATTAAAAGAAACAAAATTTTAATTATA [CACACA_negctrl_site610]”, “AAAAAGAAGAATAATACACACAAATTATTTTATATA [CACACA_site1919]” is lower in “gcPBM binding intensity (ln)” value: 6.78 for the first, 6.72 for the second.

First: TATTCCAAAAATGTGTGTACATAAATACAATATTAT [XGTACX_site2653]
Second: TATAATAAATGGACGGTGCGACATGACCATATGTGT [GTGCAC_site9476]
The “gcPBM binding intensity (ln)” value of the first is lower: 7.32 for the first, 8.55 for the second.

Going from “TTGTTAATAAAAATATTGGAAAGTTTATAAAATTTT [CACACA_negctrl_site1487]” to “TTATTTTCTTTTTCTTGTACACACATAATATGGATG [XGTACX_site1481]”, the “gcPBM binding intensity (ln)” value rises from 6.67 to 7.05.

Compared with “ATAATATATATACAAACACACAATTGCGTCCACATT [CACACA_site8515]”, “GACACCCATAAATATACACACGCACAACACAAAATA [CACACA_site8944]” is higher in “gcPBM binding intensity (ln)” value: 7.35 for the first, 7.67 for the second.

Going from “TTATTTTTTAGTAGTACACACTTTTTGTACCTTTTA [CACACA_site4503]” to “CTTACCAAAAAACACACACACACAAAATATATAAAT [CACACA_site1870]”, the “gcPBM binding intensity (ln)” value rises from 7.14 to 7.23.

First: AATAAAAAAAAAAAAAAAAAAAAAAAGACACTAAAA [CACACA_negctrl_site1075]
Second: CTAAAAGAACATGTGTGTACTTATGTTCTCTTTTTT [XGTACX_site5983]
The “gcPBM binding intensity (ln)” value of the first is higher: 6.75 for the first, 6.73 for the second.

Compared with “AATAGGAAAGATTTTGCATGTGATATAAGTAATTTT [TGCATGCA_site657]”, “CATATAATAAATAGATGTACAGACTATATATATATA [XGTACX_site6575]” is higher in “gcPBM binding intensity (ln)” value: 6.84 for the first, 9.33 for the second.

First: TTTATATGATACACACGTACATATACACATATACAC [XGTACX_site8123]
Second: TATATATATATTTTTGCACACATTTTTTAAGGTACA [CACACA_site2145]
The “gcPBM binding intensity (ln)” value of the first is lower: 7.22 for the first, 8.67 for the second.

Going from “TATAATATTTATATAACACACATATAGATTTATTTA [CACACA_site6269]” to “TATATTAAAGGGGTTTCACACACATGTATAATTAAT [CACACA_site7950]”, the “gcPBM binding intensity (ln)” value falls from 6.96 to 6.92.

First: TATTATTTAATCAAATGTACATAGAAAATGTATGTA [XGTACX_site4433]
Second: ATGTAAAATTAATATTGTACTTTTCCATCATGATAC [XGTACX_site2669]
The “gcPBM binding intensity (ln)” value of the first is lower: 6.93 for the first, 7 for the second.

Compared with “AACAAACACAGACACACACACACACCCAAATGATTA [CACACA_site2431]”, “ATAATATAACACAAATGTACAAAAAATAAATAAATA [XGTACX_site385]” is lower in “gcPBM binding intensity (ln)” value: 7.26 for the first, 6.83 for the second.

First: CATACTCACCAACACACACACACACCCATATAGAAT [CACACA_site592]
Second: TATATATATACTTAATGTACATATATATATATATAT [XGTACX_site3102]
The “gcPBM binding intensity (ln)” value of the first is lower: 7.23 for the first, 9.75 for the second.

Going from “CACAGATAAATTAACACACACACACCCATATATATA [CACACA_site3960]” to “CTTTTTGAAATATTAACACACATTTTGTTAATTAAT [CACACA_site4046]”, the “gcPBM binding intensity (ln)” value falls from 7.66 to 6.85.

First: AAAAGGAAGATATATACACACATACAAATATATATA [CACACA_site5236]
Second: CTATTTGGGGGAAGAGTGCATGACATGAATATAAAA
The “gcPBM binding intensity (ln)” value of the first is lower: 7.2 for the first, 9.99 for the second.

Going from “CTATATTATAAATATACACACATATCTTAAGTATAA [CACACA_site3096]” to “ATTAGTATTAGATGATGTACATTTATATTGAAATAT [XGTACX_site8537]”, the “gcPBM binding intensity (ln)” value rises from 6.98 to 7.03.

Going from “TTGATGTATACAATGTAGATTATTTAATATTTCAAC [CACACA_negctrl_site73]” to “TTTTTTTTTTTTTTCACACACTAATAATATTATCAT [CACACA_site4417]”, the “gcPBM binding intensity (ln)” value rises from 6.99 to 7.18.

First: ATAAATTTTTAAAAATATGAATTATGTAATTTGTGA [CACACA_negctrl_site1621]
Second: ATAAAAATACAGTTAACACACATGTGTATTTATATG [CACACA_site7727]
The “gcPBM binding intensity (ln)” value of the first is lower: 6.92 for the first, 7.01 for the second.

Going from “GAAAACGTTTGAAGTTGTACATATGTATAAAAAGAA [XGTACX_site2304]” to “ATGGTCTGTTAAAGATGTACTTTTTAAAAATAAACG [XGTACX_site2583]”, the “gcPBM binding intensity (ln)” value falls from 7.61 to 7.15.

Compared with “TGTTATTTAAATAATTCTTTTTAAAAGATGAATTAT [CACACA_negctrl_site1226]”, “TTACTTAAGAAACACACACACAAAAAAAAAAAAAAA [CACACA_site946]” is higher in “gcPBM binding intensity (ln)” value: 6.89 for the first, 7.01 for the second.

Compared with “ATCATAATCATAAAAAGTACAAACGATAAAATAAAT [XGTACX_site3832]”, “TATGTAAAAAATTTAACACACACATATATATATATA [CACACA_site8829]” is higher in “gcPBM binding intensity (ln)” value: 7.23 for the first, 9.47 for the second.
